The source of these data is US20180318417A1 (COMPASS THERAPEUTICS, published 2018).

In this test the target is T1, PID-130 (trispecific Her2/CD3/PD-1 MIAC; Blinatumomab_CD3 aglycosylated IgG1 with Trastuzumab scFv at the …).
T1 construct: also called α-Her2/α-CD3/α-PD-1 MIAC; PID130 [Her2/CD3/PD-1]
Nature of the test: ForteBio Octet BLI; antigen-Fc on Protein A sensor, 100 nM construct. On the procedure: Antigen binding of MIAC constructs were analyzed using ForteBio Octet. […] All antigens were reconstituted in PBS at the final concentration of 0.25 ug/ul. […] Association proceeded by dipping sensors in 100 nM MIAC constructs for 5 minutes and disassociation occurred in blank kinetics buffer for 5 minutes. For CD3 epsilon binding, antigen was immobilized on Ni-NTA sensors; association was performed in 50 nM MIAC constructs. Binding data were analyzed using ForteBio Data Analysis 9.0 software.
Background: Biolayer interferometry detects binding as a change in optical thickness at a sensor tip.

B1: Recombinant human PD-1 Fc fusion protein (Sino Biological) (Fc fusion)
chain: not shown
notes: not shown: Fc part of the bought fusion protein
By Kd is commonly meant the equilibrium constant for the complex coming apart. B1: the Kd stood at 370 pM.
